In PubChem BioAssay AID488969 (Vanderbilt High Throughput Screening Facility, 2010):
Over roughly 110,000 compounds, “z-score” has its median near -0.1; the highest 2% begin near 2. The list shows a part of the results. The source made the active and inactive calls.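 Rule for the calls: active = z-score in the third read window above 3 or below -3; inactive = the rest.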

target: Metabotropic glutamate receptor 8 (Rattus norvegicus) (UniProt P70579); test: mGluR8 Gi/Go-coupled signaling modulation – cell-based, rat, thallium flux, HTS, primary screen (AID 488969); conditions: HEK293 rat mGluR8, GIRK (G protein-gated inwardly rectifying potassium channel) thallium flux, FluoZin2; at 10 µM; stronger effect = higher value; submaximal glutamate (EC20) added with thallium
UniProt P70579, sequence (P70579 whole entry, looked up): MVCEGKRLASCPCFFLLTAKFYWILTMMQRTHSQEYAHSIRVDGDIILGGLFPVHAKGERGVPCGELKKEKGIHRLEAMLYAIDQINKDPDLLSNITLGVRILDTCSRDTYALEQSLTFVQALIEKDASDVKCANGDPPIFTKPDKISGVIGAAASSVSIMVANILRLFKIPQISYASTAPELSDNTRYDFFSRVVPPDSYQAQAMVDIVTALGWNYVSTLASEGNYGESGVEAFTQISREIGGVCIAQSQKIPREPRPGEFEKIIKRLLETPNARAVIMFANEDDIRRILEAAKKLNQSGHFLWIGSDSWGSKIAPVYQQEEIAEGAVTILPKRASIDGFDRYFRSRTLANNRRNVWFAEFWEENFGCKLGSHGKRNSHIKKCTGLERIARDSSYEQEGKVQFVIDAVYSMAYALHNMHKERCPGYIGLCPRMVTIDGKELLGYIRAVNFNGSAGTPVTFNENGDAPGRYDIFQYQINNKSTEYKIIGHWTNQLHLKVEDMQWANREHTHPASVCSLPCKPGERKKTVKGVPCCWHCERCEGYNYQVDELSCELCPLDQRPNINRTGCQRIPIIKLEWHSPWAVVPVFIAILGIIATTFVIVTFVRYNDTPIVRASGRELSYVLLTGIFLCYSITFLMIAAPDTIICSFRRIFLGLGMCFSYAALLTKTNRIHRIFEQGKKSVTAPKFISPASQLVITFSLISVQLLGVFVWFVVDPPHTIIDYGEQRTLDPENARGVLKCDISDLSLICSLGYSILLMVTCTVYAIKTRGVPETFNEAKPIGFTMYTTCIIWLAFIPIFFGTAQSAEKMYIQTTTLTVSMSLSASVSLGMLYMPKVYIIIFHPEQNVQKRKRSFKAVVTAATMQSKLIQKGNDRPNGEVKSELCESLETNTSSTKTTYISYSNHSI

| Structure (SMILES) | z-score |
| --- | --- |
| CC(=O)Nc1ccc(S(=O)(=O)NC2(C(F)(F)F)NC(=O)N(c3ccc(Cl)cc3)C2=O)cc1 (stereo not given) | -0.0337 |
| S=C(NCCSCc1ccccc1Cl)Nc1ccccc1 | 0.36 |
| O=C(Nc1ccc(Br)cn1)c1ccc2nccnc2c1 | 0.228 |
| CCc1ccc(-c2nc(NC(=S)NC(=O)c3cccs3)sc2C)cc1 | 0.595 |
| CCCn1cnc2sc(C(N)=O)c(C)c2c1=O | -0.0708 |
| Cc1cccc(/C=N\NC(=O)c2csnn2)c1 | -0.116 |
| CCOC(=O)C1=C(C)Nc2nc(=S)[nH]n2C1c1ccc(Cl)cc1 (stereo not given) | -0.454 |
| CCOC(=O)c1ccc(NC(=O)COC(=O)Cc2csc(-c3ccccc3)n2)cc1 | -0.252 |
| COc1ccc(C2N(c3ccc(F)cc3)C(=O)C3CCCN32)cc1 (stereo not given) | 0.719 |
| CCN1/C(=C2\C(=O)N(C)C(=S)N2C)C=Cc2cc(OC)ccc21 | -0.193 |
| CN1CCN(NS(=O)(=O)c2ccc(Cl)s2)CC1 | -0.145 |
| CCC(C)(C)n1nnnc1C(c1ccccc1OC)N1CCSCC1 (stereo not given) | 0.0085 |
| CCN1CCN(c2cc(C)c3cc(NC(=O)c4ccc(Br)o4)ccc3n2)CC1 | active: 3.44 |
| COc1cc(/C=N\NC(=O)CNC(=O)C2COc3ccccc3O2)ccc1O (stereo not given) | -0.838 |
| COc1cccc(NC(=O)CSc2nnc(Cc3cccs3)n2-c2ccc(C)cc2)c1 | -0.673 |
| O=C(Nc1ccccc1Cc1ccccc1)C1CC(=O)N(c2ccc3c(c2)OCCO3)C1 (stereo not given) | -0.153 |
| Cc1ccc(-n2sc3ccccc3c2=O)cc1 | -0.306 |
| COc1nnc(-c2ccc(N3CCOCC3)c(NC(=O)c3ccco3)c2)c2ccccc12 | -2.65 |
| CCCOc1ccc(N2C(=O)CC(NCc3cccs3)C2=O)cc1 (stereo not given) | 0.967 |
| O=C(Oc1ccc(Cl)cc1)c1ccc2nccnc2c1 | -0.0816 |
| CCOC(=O)C1=C(C)NC(SCC(=O)Nc2nc(C)cs2)=C(C#N)C1c1cccs1 (stereo not given) | -0.832 |
| COc1ccc(N(CC(=O)O)S(=O)(=O)c2ccc(OC)c(OC)c2)cc1 | 0.0339 |
| CCOC(=O)NC(=O)CSc1nc(-c2ccc(C)c(C)c2)cn1-c1ccccc1 | 1.15 |
| FC(F)(F)c1ccc(CN2CCCCCC2)cc1 | 0.053 |
| CCN(/N=C/c1ccc(Cl)cc1)c1cc(=O)n(C)c(=O)[nH]1 | -0.289 |
| CC1(C)CC2CC(C)(CN2C(=O)Cc2ccccc2)C1 (stereo not given) | -0.0313 |
| O=C(CSc1ncnc2ccccc12)NCc1ccco1 | 0.0729 |
| O=C(c1ccccc1)N1CCCC(C(=O)N2CCCCCC2)C1 (stereo not given) | 0.478 |

| Structure (SMILES) | z-score |
| --- | --- |
| Cc1ccc(N(CC(=O)N/N=C/c2ccco2)S(=O)(=O)c2ccccc2)cc1 | -0.0917 |
| O=C(CSc1nnc(COc2cccc3ccccc23)o1)N1c2ccccc2CCc2ccccc21 | 1.22 |
| COc1ccc(C2=NN3C(C2)c2ccccc2OC32C(=O)N(C)c3ccccc32)cc1 (stereo not given) | -0.118 |
| O=C(NCc1ccccc1)c1cccc(COc2cc(Cl)ccc2Cl)c1 | -0.278 |
| COc1ccc(NC(=O)CN(Cc2ccccc2)S(C)(=O)=O)c(OC)c1 | -0.052 |
| Cc1ccc(N2C(N)=C(C#N)C3(C(=O)N(C)c4ccccc43)C3=C2CC(C)(C)CC3=O)cc1Cl (stereo not given) | -2.04 |
| COc1cccc(C2=Nc3cccc4cccc(c34)N2)c1 | -0.506 |
| CON1C(=O)C(=O)N(OC)C(C)(C)C1(C)C | -0.132 |
| COc1cc(Cl)c(C)cc1NC(=O)CCCn1c(=O)oc2ccccc21 | -0.249 |
| c1ccc(C2CC(c3cccs3)n3nnnc3N2)cc1 (stereo not given) | -0.646 |
| COc1ccccc1N1CCN(C(=O)CSc2nc3ncnc(N)c3[nH]2)CC1 | -1.12 |
| CCc1cc2c(-n3nc(C)cc3C)ncnc2s1 | 0.0531 |
| CN(CC(=O)O/N=C(\N)c1ccc([N+](=O)[O-])cc1)S(=O)(=O)c1ccccc1 | -0.0101 |
| CS(=O)(=O)N(CC(=O)N1CCCC1)c1cccc(Cl)c1Cl | -1.92 |
| COC(=O)c1[nH]c2cc(OC)ccc2c1NC(=O)c1nonc1C | 0.0286 |
| COc1cc(C2C(C(=O)N3CCOCC3)=C(C)NC3=C2C(=O)CCC3)ccc1OC(C)=O (stereo not given) | 0.401 |
| CN1CC(=O)NC1=NC(=O)C12CC3CC(CC(C3)C1)C2 | 0.29 |
| CCCCc1nnc(NC(=O)CSc2nc(=O)cc(N)n2-c2ccccc2)s1 | 0.266 |
| CCC(C)Nc1nc2c(c(=O)n(C)c(=O)n2C)n1Cc1cccc(C)c1 (stereo not given) | -0.578 |
| CCOC(=O)c1ccccc1NC(=O)c1cc2sccc2n1C | -0.139 |
| COc1ccc(N(CC(=O)NCc2cccc(OC)c2)S(=O)(=O)c2c(C)noc2C)cc1 | -0.199 |
| Nc1c(-c2ccc(Cl)cc2)cnn1-c1cccc(C(F)(F)F)c1 | -0.222 |
| O=C(Nc1ccc([N+](=O)[O-])cn1)c1cc(-c2cccc(Cl)c2)nc2ccccc12 | -0.658 |
| CCOc1ccc(OCC)c(NC(=O)CN2CCN(CC)CC2)c1 | 0.18 |
| COc1cccc(OCCNC(=O)c2cccc(OC)c2)c1 | 0.309 |
| CC(C)c1nc(N2CCOCC2)c(C#N)c2c1CCCC2 | active: 6.82 |
| N/C(=N\c1nc2c(c(=O)[nH]1)CCCC2)Nc1ccccc1Sc1ccccc1 | 0.0985 |
